According to patent US12692294B2, “Engineered NRG-1 variants with improved selectivity toward ErbB4 but not against ErbB3” (Amgen Inc., priority 2021, dated 2026):
Substitutions are numbered along the chain they refer to. Names may count otherwise. “And” between values parts separate entries of the source, which are not always exact repeats. Equal values may be shown once.

B1: huNRG1(S177-Q237)(NRGE1C)::GG::huFcSEFL2 (Pb): Fc fusion of NRG1 variant SEQ ID NO:124 (protein)
chain: SHLVKCGEKHKSFCVNGGECFMIEGPSNPSRYLCKCPNEFTGDRCQEDFMASFYKAEELYQGG[letters of human IgG1 Fc with R292C N297G V302C (EU numbers) not shown]
modifications: huNRG1(S177-Q237)(NRGE1C)::GG::huFcSEFL2 (Pb)
B2: huNRG1(S177-F229)(NRGE1C)::3x(G4Q)::huFcSEFL2 (Pb): Fc fusion of NRG1 variant SEQ ID NO:117 (protein)
chain: SHLVKCGEKHKSFCVNGGECFMIEGPSNPSRYLCKCPNEFTGDRCQEDFMASFGGGGQGGGGQGGGGQ[letters of human IgG1 Fc with changes not shown]
modifications: huNRG1(S177-F229)(NRGE1C)::3x(G4Q)::huFcSEFL2 (Pb)
B3: huNRG1(S177-Q237)(NRGE1D)::GG::huFcSEFL2 (Pb): Fc fusion of NRG1 variant SEQ ID NO:131 (protein)
chain: B1 chain with K9S, F21Y, I23V, P26S, N28I
modifications: huNRG1(S177-Q237)(NRGE1D)::GG::huFcSEFL2 (Pb)
B4: huNRG1(S177-Q237)(NRGE1D)::3x(G4Q)::huFcSEFL2 (Pb): Fc fusion of NRG1 variant SEQ ID NO:131 (protein)
chain: SHLVKCGESHKSFCVNGGECYMVEGSSIPSRYLCKCPNEFTGDRCQEDFMASFYKAEELYQGGGGQGGGGQGGGGQ[letters of human IgG1 Fc with changes not shown]
modifications: huNRG1(S177-Q237)(NRGE1D)::3x(G4Q)::huFcSEFL2 (Pb)
B5: huNRG1(S177-S228)(NRGE1D)::3x(G4Q)::huFcSEFL2 (Pb): Fc fusion of NRG1 variant SEQ ID NO:125 (protein)
chain: SHLVKCGESHKSFCVNGGECYMVEGSSIPSRYLCKCPNEFTGDRCQEDFMASGGGGQGGGGQGGGGQ[letters of human IgG1 Fc with changes not shown]
modifications: huNRG1(S177-S228)(NRGE1D)::3x(G4Q)::huFcSEFL2 (Pb)
B6: huNRG1(S177-Q237)(NRGE1A)::GG::huFcSEFL2 (Pb): Fc fusion of NRG1 variant SEQ ID NO:114 (protein)
chain: B1 chain with G7A, K9N, H10D
modifications: huNRG1(S177-Q237)(NRGE1A)::GG::huFcSEFL2 (Pb)
B7: huNRG1(S177-Q237)(NRGE1B)::GG::huFcSEFL2 (Pb): Fc fusion of NRG1 variant SEQ ID NO:115 (protein)
chain: B1 chain with K9N, H10D, F21Y, I23V, P26S, N28I
modifications: huNRG1(S177-Q237)(NRGE1B)::GG::huFcSEFL2 (Pb)
B8: huNRG1(S177-Q237)(NRGE1E)::GG::huFcSEFL2 (Pb): Fc fusion of NRG1 variant SEQ ID NO:132 (protein)
chain: B1 chain with K9N, H10D, E47N
modifications: huNRG1(S177-Q237)(NRGE1E)::GG::huFcSEFL2 (Pb)
B9: huNRG1(S177-Q237)(NRGE1F)::GG::huFcSEFL2 (Pb): Fc fusion of NRG1 variant SEQ ID NO:133 (protein)
chain: B1 chain with G7A, K9N, H10D, F21Y, I23V, P26S, N28I, E47N
modifications: huNRG1(S177-Q237)(NRGE1F)::GG::huFcSEFL2 (Pb)
B10: huNRG1(S177-Q237)(NRGE1G)::GG::huFcSEFL2 (Pb): Fc fusion of NRG1 variant SEQ ID NO:134 (protein)
chain: B1 chain with F21Y, I23V, P26S, N28I, E47N
modifications: huNRG1(S177-Q237)(NRGE1G)::GG::huFcSEFL2 (Pb)
B11: huNRG1(S177-Q237)(NRGE1H)::GG::huFcSEFL2 (Pb): Fc fusion of NRG1 variant SEQ ID NO:135 (protein)
chain: B1 chain with K9S, E47N
modifications: huNRG1(S177-Q237)(NRGE1H)::GG::huFcSEFL2 (Pb)
B12: huNRG1(S177-Q237)(NRGE1I)::GG::huFcSEFL2 (Pb): Fc fusion of NRG1 variant SEQ ID NO:136 (protein)
chain: B1 chain with K9N, H10D, E47D
modifications: huNRG1(S177-Q237)(NRGE1J)::GG::huFcSEFL2 (Pb)
B13: huNRG1(S177-Q237)(NRGEU)::GG::huFcSEFL2 (Pb): Fc fusion of NRG1 variant, probably NRGE1J, SEQ ID NO:137 (protein)
chain: B1 chain with K9N, H10D, F21Y, I23V, P26S, N28I, E47D
modifications: huNRG1(S177-Q237)(NRGE1J)::GG::huFcSEFL2 (Pb)
B14: huNRG1(S177-Q237)(NRGE1K)::GG::huFcSEFL2 (Pb): Fc fusion of NRG1 variant SEQ ID NO:138 (protein)
chain: B1 chain with G7A, E47D
modifications: huNRG1(S177-Q237)(NRGE1K)::GG::huFcSEFL2 (Pb)
B15: huNRG1(S177-Q237)(NRGE1L)::GG::huFcSEFL2 (Pb): Fc fusion of NRG1 variant SEQ ID NO:139 (protein)
chain: B1 chain with K9S, F21Y, I23V, P26S, N28I, E47D
modifications: huNRG1(S177-Q237)(NRGE1L)::GG::huFcSEFL2 (Pb)
B16: huNRG1(S177-Q237)(NRGE1M)::GG::huFcSEFL2 (Pb): Fc fusion of NRG1 variant SEQ ID NO:140 (protein)
chain: B1 chain with K9N, H10D, E47D, D48F
modifications: huNRG1(S177-Q237)(NRGE1M)::GG::huFcSEFL2 (Pb)
B17: huNRG1(S177-Q237)(NRGE1N)::GG::huFcSEFL2 (Pb): Fc fusion of NRG1 variant SEQ ID NO:141 (protein)
chain: B1 chain with K9N, H10D, F21Y, I23V, P26S, N28I, E47D, D48F
modifications: huNRG1(S177-Q237)(NRGE1N)::GG::huFcSEFL2 (Pb)
B18: huNRG1(S177-Q237)(NRGE1O)::GG::huFcSEFL2 (Pb): Fc fusion of NRG1 variant SEQ ID NO:142 (protein)
chain: B1 chain with F21Y, I23V, P26S, N28I, E47D, D48F
modifications: huNRG1(S177-Q237)(NRGE1O)::GG::huFcSEFL2 (Pb)
B19: huNRG1(S177-Q237)(NRGE1P)::GG::huFcSEFL2 (Pb): Fc fusion of NRG1 variant SEQ ID NO:143 (protein)
chain: B1 chain with G7A, K9S, E47D, D48F
modifications: huNRG1(S177-Q237)(1D3)::GG::huFcSEFL2 (Pb)

Biological target: T1, ErbB4 (Rattus norvegicus, UniProt Q62956)
T1 construct: forming the ErbB2/ErbB4 complex in cardiomyocytes and the ErbB2/ErbB3 complex in Schwann cells; endogenous in cells; host or cells: primary neonatal rat cardiomyocytes (Sprague Dawley pups, 0 to 4 days old)
Assay: In vitro phosphorylation of Akt in neonatal rat cardiomyocytes
Type: cell-based
Conditions: Akt (Serine 473) phosphorylation, neonatal rat cardiomyocytes, 15 minutes treatment; read-out: Cardiomyocyte (CM) (ErbB4) Avg EC50
Procedure, shortened: (§1)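 Akt Ser473 phosphorylation, normalised to total Akt, was measured after 15-min neuregulin variant treatment of serum-starved (16 h) cells: rat Schwann cells for ErbB3, neonatal rat cardiomyocytes for ErbB4. EC50 derived by variable-slope log(agonist) fit; CM % agonism is the curve top.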

T1 sequence (Q62956 26-1308): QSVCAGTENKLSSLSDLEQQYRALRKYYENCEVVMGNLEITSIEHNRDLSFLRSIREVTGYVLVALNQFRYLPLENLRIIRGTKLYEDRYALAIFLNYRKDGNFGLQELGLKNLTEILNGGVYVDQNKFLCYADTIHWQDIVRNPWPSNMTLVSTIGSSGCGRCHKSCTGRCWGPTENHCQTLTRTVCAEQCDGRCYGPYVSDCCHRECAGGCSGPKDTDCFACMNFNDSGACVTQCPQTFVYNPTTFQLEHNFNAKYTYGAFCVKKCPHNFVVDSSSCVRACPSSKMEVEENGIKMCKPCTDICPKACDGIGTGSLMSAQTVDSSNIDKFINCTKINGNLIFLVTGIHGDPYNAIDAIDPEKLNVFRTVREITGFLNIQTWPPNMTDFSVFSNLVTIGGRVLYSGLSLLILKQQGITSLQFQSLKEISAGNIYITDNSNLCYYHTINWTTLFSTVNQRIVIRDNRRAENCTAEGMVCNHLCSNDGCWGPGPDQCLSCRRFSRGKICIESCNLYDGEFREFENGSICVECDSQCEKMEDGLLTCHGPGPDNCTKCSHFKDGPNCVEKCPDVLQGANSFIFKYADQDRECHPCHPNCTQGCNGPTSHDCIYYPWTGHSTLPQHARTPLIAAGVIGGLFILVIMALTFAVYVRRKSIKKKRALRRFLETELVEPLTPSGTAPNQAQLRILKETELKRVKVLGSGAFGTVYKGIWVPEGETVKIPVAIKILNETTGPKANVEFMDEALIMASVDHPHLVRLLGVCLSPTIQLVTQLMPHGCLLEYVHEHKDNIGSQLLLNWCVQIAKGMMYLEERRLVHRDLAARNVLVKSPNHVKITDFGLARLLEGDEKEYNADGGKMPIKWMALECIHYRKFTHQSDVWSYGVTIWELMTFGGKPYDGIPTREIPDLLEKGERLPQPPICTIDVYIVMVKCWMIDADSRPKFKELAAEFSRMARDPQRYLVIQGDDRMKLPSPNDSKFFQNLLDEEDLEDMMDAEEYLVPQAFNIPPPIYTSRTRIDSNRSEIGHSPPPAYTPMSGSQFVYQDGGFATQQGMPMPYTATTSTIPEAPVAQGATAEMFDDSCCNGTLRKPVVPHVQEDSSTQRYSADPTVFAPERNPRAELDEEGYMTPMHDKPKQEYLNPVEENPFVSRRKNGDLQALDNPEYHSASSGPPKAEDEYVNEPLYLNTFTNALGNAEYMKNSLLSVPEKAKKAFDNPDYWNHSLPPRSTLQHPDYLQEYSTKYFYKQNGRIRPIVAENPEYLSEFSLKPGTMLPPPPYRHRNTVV
T1 sequence (P06494 23-1257 partner): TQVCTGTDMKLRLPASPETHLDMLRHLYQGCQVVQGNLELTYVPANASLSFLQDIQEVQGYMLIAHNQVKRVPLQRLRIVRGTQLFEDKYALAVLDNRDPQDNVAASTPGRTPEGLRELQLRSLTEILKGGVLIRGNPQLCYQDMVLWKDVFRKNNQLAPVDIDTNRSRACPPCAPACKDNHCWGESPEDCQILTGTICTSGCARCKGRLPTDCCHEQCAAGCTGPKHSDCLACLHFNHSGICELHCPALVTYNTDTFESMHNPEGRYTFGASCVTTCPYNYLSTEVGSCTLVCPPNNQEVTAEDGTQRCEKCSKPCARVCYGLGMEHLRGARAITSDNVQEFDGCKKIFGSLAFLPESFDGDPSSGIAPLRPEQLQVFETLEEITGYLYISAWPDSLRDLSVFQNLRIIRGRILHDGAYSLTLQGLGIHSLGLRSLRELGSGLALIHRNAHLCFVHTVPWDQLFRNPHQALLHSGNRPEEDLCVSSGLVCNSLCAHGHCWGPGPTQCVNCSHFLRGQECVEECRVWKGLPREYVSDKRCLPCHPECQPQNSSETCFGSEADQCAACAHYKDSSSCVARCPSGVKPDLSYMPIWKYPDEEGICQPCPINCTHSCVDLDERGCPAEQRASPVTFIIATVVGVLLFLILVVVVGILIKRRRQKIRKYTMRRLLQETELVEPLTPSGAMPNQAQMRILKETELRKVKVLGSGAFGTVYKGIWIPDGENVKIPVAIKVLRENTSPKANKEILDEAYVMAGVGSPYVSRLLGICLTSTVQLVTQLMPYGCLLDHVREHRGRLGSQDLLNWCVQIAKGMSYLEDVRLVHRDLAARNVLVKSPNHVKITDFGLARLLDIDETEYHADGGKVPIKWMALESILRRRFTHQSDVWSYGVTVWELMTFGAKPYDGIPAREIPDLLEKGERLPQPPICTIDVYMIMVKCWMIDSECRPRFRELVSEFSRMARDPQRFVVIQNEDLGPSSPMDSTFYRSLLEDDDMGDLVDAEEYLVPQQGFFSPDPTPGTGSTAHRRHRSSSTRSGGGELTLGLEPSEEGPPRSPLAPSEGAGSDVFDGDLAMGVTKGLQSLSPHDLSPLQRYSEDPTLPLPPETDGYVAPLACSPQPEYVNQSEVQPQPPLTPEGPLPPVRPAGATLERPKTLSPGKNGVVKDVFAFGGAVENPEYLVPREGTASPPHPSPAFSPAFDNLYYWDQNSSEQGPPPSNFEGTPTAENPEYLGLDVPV

Molecule | EC50
B1 | 0.41 nM and 0.476 nM
B2 | 0.24 nM and 0.33 nM
B3 | 0.33 nM and 0.303 nM
B4 | 0.21 nM
B5 | 229 nM
B6 | 1.84 nM
B7 | 1.48 nM
B8 | 0.995 nM
B9 | 0.65 nM
B10 | 0.218 nM
B11 | 0.286 nM
B12 | 22.9 nM
B13 | 14.1 nM
B14 | 7.54 nM
B15 | 2.29 nM
B16 | 25.6 nM
B17 | 1.73 nM
B18 | 1.04 nM
B19 | 2.22 nM

Same assay, conditions: ratio of EC50s Schwann cells/cardiomyocytes

Molecule | Selectivity SC/CM
B1 | >10000
B2 | >10000
B3 | >10000
B4 | >10000
B5 | >100
B6 | >5500
B7 | >6700
B8 | >10000
B9 | >10000
B10 | >10000
B11 | >10000
B12 | 437
B13 | 710
B14 | 1320
B15 | >4370
B16 | 39
B17 | 435
B18 | 526
B19 | 229

Same assay, conditions: top value of the Akt phosphorylation data points in cardiomyocytes; wild-type control 100

Molecule | CM % Agonism AVG [%]
B1 | 82
B2 | 77.3
B3 | 83
B6 | 72
B7 | 76
B8 | 83
B9 | 90
B10 | 84
B11 | 88
B12 | 67
B13 | 68
B14 | 66
B15 | 74
B16 | 30
B17 | 26
B18 | 27
B19 | 28

Biological target: T2, ErbB3 (Rattus norvegicus, UniProt Q62799)
T2 construct: forming the ErbB2/ErbB4 complex in cardiomyocytes and the ErbB2/ErbB3 complex in Schwann cells; endogenous in cells; host or cells: rat Schwann cells
Assay: In vitro phosphorylation of Akt in rat Schwann cells
Type: cell-based
Conditions: Akt (Serine 473) phosphorylation, 15 minutes treatment, read-out: Schwann cells (SC) (ErbB3) Avg EC50
Procedure, shortened: as §1

T2 sequence (Q62799 20-1339): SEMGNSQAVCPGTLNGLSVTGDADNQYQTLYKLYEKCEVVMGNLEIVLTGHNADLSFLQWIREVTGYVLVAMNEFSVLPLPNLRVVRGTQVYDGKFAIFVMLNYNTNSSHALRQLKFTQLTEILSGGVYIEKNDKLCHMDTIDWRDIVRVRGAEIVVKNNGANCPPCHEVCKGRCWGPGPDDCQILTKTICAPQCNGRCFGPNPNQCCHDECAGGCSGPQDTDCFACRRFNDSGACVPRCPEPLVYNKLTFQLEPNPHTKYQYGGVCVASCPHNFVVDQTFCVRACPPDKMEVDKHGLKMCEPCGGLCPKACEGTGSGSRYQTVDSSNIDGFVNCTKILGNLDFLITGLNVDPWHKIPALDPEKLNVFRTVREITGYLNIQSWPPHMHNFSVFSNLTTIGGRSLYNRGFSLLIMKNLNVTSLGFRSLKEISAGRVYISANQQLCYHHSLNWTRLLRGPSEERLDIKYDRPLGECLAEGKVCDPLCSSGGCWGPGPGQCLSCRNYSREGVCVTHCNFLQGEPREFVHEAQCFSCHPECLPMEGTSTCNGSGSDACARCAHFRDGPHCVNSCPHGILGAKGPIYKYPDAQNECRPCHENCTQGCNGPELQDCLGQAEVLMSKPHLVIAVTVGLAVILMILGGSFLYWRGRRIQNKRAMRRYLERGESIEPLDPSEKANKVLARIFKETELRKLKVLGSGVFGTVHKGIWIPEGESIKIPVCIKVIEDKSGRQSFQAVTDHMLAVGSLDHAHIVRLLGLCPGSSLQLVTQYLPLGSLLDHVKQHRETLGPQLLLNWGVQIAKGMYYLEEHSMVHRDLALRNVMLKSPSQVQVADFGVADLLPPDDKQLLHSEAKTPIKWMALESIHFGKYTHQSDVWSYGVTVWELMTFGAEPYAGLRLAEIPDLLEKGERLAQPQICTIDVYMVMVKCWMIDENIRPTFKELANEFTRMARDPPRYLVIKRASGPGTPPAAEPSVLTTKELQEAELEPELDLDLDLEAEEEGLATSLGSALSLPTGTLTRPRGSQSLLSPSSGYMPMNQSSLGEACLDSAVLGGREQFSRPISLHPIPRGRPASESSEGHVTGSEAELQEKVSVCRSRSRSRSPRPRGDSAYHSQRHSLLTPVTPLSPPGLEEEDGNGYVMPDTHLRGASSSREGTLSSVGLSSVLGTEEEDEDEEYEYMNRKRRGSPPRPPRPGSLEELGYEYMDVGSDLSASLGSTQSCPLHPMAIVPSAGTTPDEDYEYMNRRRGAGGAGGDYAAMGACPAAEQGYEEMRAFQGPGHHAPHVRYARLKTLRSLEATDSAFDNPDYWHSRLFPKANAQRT
T2 sequence (P06494 23-1257 partner): as the sequence (P06494 23-1257 partner) above

Molecule | EC50 [nM]
B1 | > 10000
B2 | > 10000
B3 | > 10000
B4 | > 10000
B5 | > 10000
B6 | > 10000
B7 | > 10000
B8 | > 10000
B9 | > 10000
B10 | > 10000
B11 | > 10000
B12 | > 10000
B13 | > 10000
B14 | > 10000
B15 | > 10000
B16 | 1010
B17 | 751
B18 | 546
B19 | 510
